The supplement of paper PMC11417369
The other results are listed elsewhere or left out.

tested on: PfHDP1 homeodomain (GST-tagged); assay: gcPBM binding intensity (ln(normalized median fluorescence intensity)); higher = stronger DNA binding
Outline: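 Binding intensity is the highest Masliner-normalised natural-log median intensity over replicate spots in either probe orientation. To obtain it, GST-tagged P. falciparum DNA-binding domains made in E. coli were incubated for 1 h on an Agilent 4 × 180k array of primer-extended double-stranded 36-bp intergenic genomic probes plus negative controls. Detection used Alexa488 anti-GST antibody with scanning at 488 nm.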

| Sequence | gcPBM binding intensity (ln) |
| --- | --- |
| TTTACTTTCCCAAGTTGTACTGCTTCTAAGCTTTTT [XGTACX_site2708] | 6.3 |
| TATAAAAAATAATACACACACATGGCGACAAAATAA [CACACA_site2420] | 7.11 |
| AATGATAATATTTCCTTCTTTTTTACTTCTTTCTTT [CACACA_negctrl_site776] | 6.41 |
| AAAATGGTTTATAAATGTACATATATTATATATAAC [XGTACX_site7959] | 6.62 |
| AAAAATATAATATAATGTACACAAAAAAAAAAATTC [XGTACX_site3657] | 6.63 |
| TTTTTATAACGTAATAAATAAAACGTCTATACTATA [XGTACX_negctrl_site176] | 6.3 |
| TATATTATTATAATTTGTACATATCTAATTATATAT [XGTACX_site5342] | 6.58 |
| TAAAGATATTATTTTTGTACATATTGATATAATGAA [XGTACX_site6571] | 6.31 |
| AATTAGACATAATATACACACATATATTATAGATAT [CACACA_site7297] | 6.5 |
| ACGTTTTATAATTAATGTACAAATATTAAAATTGCA [XGTACX_site7869] | 6.47 |
| GAATAAATTAAAAATGCACACTTTGATGGGTACATT [CACACA_site5220] | 8.68 |
| TATATTTGCAGTAATAATAATTATTATAAAAGATAA [XGTACX_negctrl_site547] | 6.92 |
| TATGAATGGTTAAGTACACACATATTAAGATATGTA [CACACA_site5852] | 6.13 |
| TCATATATTTATGTATGTACATATATATATAGATTA [XGTACX_site380] | 6.36 |
| TTATTTATTTTAAATTCACACATCGTGCTATTATAT [CACACA_site5003] | 6.34 |
| CTTTATAAAATAAGAGTGCGTTATATTGAATTGTAT [GTGCAC_site9390] | 6.94 |
| ATATAAGATTTAAGAAGTACAATTATACAGTAGATC [XGTACX_site7501] | 6.71 |
| ATATAACATAGACACACACACATATAAATATATTAT [CACACA_site7865] | 6.83 |
| GGGAAAGAACCATATACATGCATATTTACCGTTAAA [TGCATGCA_site519] | 6.17 |
| CATATACATACACATACACACATACAGACATACACA [CACACA_site6919] | 7.2 |
| TGAAATTTTATTAATGTGCACATATATTTATTGTTC | 10.8 |
| ATCACTTGAGAATAATTACATTAATATATATTTATG [TGCATGCA_negctrl_site581] | 6.21 |
| CTTTTTAATTAATACACACACACACCCATATATATA [CACACA_site2292] | 7.46 |

| Sequence | gcPBM binding intensity (ln) |
| --- | --- |
| ATAAAAATGTATATATGTACATATATATATATATAT [XGTACX_site1505] | 9.15 |
| GTAAAAAAAAAAAAATGTACACATATATATAATATA [XGTACX_site159] | 6.5 |
| TTTTTTTTTTTTAATACACACATATATATATTTATT [CACACA_site3994] | 6.78 |
| AACATAATTAAAAATTGTACAGAATTTCAATCGAAA [XGTACX_site7542] | 6.35 |
| TTATTATATATAAGTAGTACAAACAATTAAGAGATA [XGTACX_site4009] | 6.85 |
| TGATGATATAAAAACACACACATATAACATAATACT [CACACA_site6687] | 6.84 |
| ATTGTCTTTTAATAGTGTACTTATTTTAAATATTGC [XGTACX_site8517] | 6.71 |
| TTTCTAATATATAAAGTGCAATACCATTCAGAGTTA | 8.41 |
| AAGAAAATAAAATAAAATAAAATAAAATAAAAATAT [TGCATGCA_negctrl_site493] | 6.49 |
| TATAATTTATAAGTAGTGCATTTCTTTTCATTTTTA | 9.12 |
| TTTTATAGAGTGTATACATGCAATACCACATAAAAT [TGCATGCA_site476] | 6.65 |
| ATATGGAAGAATTAAAGTACTTAAAAAAATGTCAGT [XGTACX_site6837] | 6.98 |
| ATATTATCCCTATTTGCACACAAGAGTAATTTTTTA [CACACA_site3908] | 10.4 |
| TTTCTTTCTATTGTTATATTTATAATAATTATAATT [XGTACX_negctrl_site215] | 6.78 |
| TGTTTAAGTGTTTTTAGTACTTATAAAAATATTATC [XGTACX_site7379] | 6.1 |
| TATAAAATTACATTTTGTCATTTATTTTTTCCCACT [TGCATGCA_negctrl_site110] | 6.24 |
| TTATACGATAATATGACACACAATACAAAAATGTAA [CACACA_site1918] | 6.44 |
| CCTATAAAACCATATACACACATATATATAAAAAAA [CACACA_site4013] | 6.65 |
| TGTTTCTAAAAATTTACACACAAAATATTTCTACAT [CACACA_site4098] | 6.35 |
| AAAAAAAAAAAAATTGCATGTAAATGAAATAATAAA [TGCATGCA_site116] | 6.44 |
| AAAGAAGAAAAATATAGTACAGGGCACATGTCCTGT [XGTACX_site6293] | 5.77 |
| TTATTTTTATATTTCACACACATATACTTTTACATA [CACACA_site4097] | 6.73 |
| ATTTAAATTTAAAAAACACACATAATATGATATATA [CACACA_site1973] | 6.69 |

| Sequence | gcPBM binding intensity (ln) |
| --- | --- |
| AAATAAAATATTACATGTACATGTTCATAAAAAAAA [XGTACX_site1067] | 6.35 |
| ATAAATTAATGGAGAAATCTTATGAATTTATTTTAA [CACACA_negctrl_site1068] | 5.71 |
| TATTGTAGTCATGCACGTACAAAAGGAAAGTTAAAA [XGTACX_site4446] | 8.65 |
| AATATATACATATATACACACACATATATTATATAT [CACACA_site7980] | 6.88 |
| TAAATATAAGTGTACATACACACTTTACAATCTCAT [CACACA_site3006] | 6.28 |
| AATAAAAAGGAACACACACACACACCGATATATATA [CACACA_site5895] | 6.85 |
| TACATACACAGACACACACACATATATATATATATA [CACACA_site3557] | 9.32 |
| CTTATTTTATTCGAATGTACATAATTGTTAGACATT [XGTACX_site8583] | 6.58 |
| TTTTACAAATGTTTTACACACACATAATTGTATCAA [CACACA_site4166] | 6.73 |
| AAAAAAAGGATGTACGTATCATAATTTTATTTTATA [CACACA_negctrl_site1543] | 6.06 |
| ATGGTTTAATTATATACACACTCGAAAATAACGACA [CACACA_site3258] | 6.63 |
| TGATATTATATTGTGATGCACTTTAAAAATATAAAG [GTGCAC_site9509] | 7.24 |
| CTTAAGTAAAATTAAAGTACATGGACAAAAAATATA [XGTACX_site7900] | 6.69 |
| TATCTCATGCGCACAAAAATATATGCAAAGAGTATA [TGCATGCA_negctrl_site201] | 8.26 |
| AATAATAACAAATGAACACACATATAGATGAGCAAA [CACACA_site7076] | 7.97 |
| CAATTTTACTCATAAACACACATATATATGTTATTA [CACACA_site3152] | 6.86 |
| ATATGTGTTAAAAATGCACACAAAAAAATATACATA [CACACA_site7988] | 9.74 |
| TGGGTATATATAAAAGGTACACAAAATGAAGATATA [XGTACX_site4994] | 7.07 |
| TTTTCTGTGTTTTTGGGTACACACAAATAGCTTGTA [XGTACX_site8553] | 6.85 |
| TAATTTCTTATGTATTGTACAAATAATATATTATAT [XGTACX_site1037] | 6.6 |
| AATATATACATACATACATGCATACATATATATAAC [TGCATGCA_site371] | 6.51 |
| TTTAAATATATTCAATCACACACATTCGTTTTTTTT [CACACA_site7962] | 6.56 |
| GAATATTAAACAAACACACACACATATATATATATA [CACACA_site3382] | 9.25 |

| Sequence | gcPBM binding intensity (ln) |
| --- | --- |
| AGTAGTCTGGAGAAAAGTACACAGTATCTGGTAACC [XGTACX_site2035] | 6.12 |
| GTATAAAAATTATATACACACAACAGAATTACATAT [CACACA_site133] | 6.74 |
| GTTTATTGATTTATTTGTACTTATATATATATTTCA [XGTACX_site5098] | 6.95 |
| TTATGTATCCTTATAAGAAAAAAAAAAAAATTCTCT [CACACA_negctrl_site1183] | 6.09 |
| TAAAGATGTATTTATTCACACATCTCATATAATGAA [CACACA_site5229] | 6.28 |
| AATAAAAATATAGGCACACATATTAAAATGAACTTA [CACACA_site830] | 6.33 |
| TGAATTTAGATATATACACACAAAAGTAAATACAAT [CACACA_site5548] | 6.71 |
| ATGTATATGTTTTGTTGTACAAGTATTTTATATCTT [XGTACX_site3588] | 6.77 |
| TAAATACAGACATATACACACATATATATATATATA [CACACA_site4382] | 9.34 |
| TATATATATATATTACGTTTTAAATATACTAATCTT [CACACA_negctrl_site32] | 8.81 |
| TTTTTATTTTTTCAAGTGCATATTTTTGGCTTCTTA | 7.35 |
| TAAATTTATATATAGGTGCGCAATTTGATAATAGTT [GTGCAC_site9783] | 7.5 |
| AAAAAAAAAAAAAATACACACATATATATATATATA [CACACA_site85] | 9.27 |
| CTTTTTCCTTTATATTGTACATAATTAAAGATAATA [XGTACX_site7014] | 6.66 |
| AAAAAAAAAAGACACACACACAATAGTATATAAATC [CACACA_site6579] | 6.59 |
| TATAAATAGATATATACACACATTTTTAATGATAAA [CACACA_site7299] | 6.27 |
| TATTGCCCTGGACACACACACATATATATATATATA [CACACA_site5389] | 9.42 |
| TTATGTTATATAAAAAGTACAAATTTTTTTTAATTA [XGTACX_site3435] | 5.94 |
| ATTATTATTATATATGCATGTAAAATATTAAAGTAC [TGCATGCA_site914] | 6.77 |
| ATAATATAAACATACACACACACATCTATATTTATA [CACACA_site7381] | 6.97 |
